Where a chain is given by its changes, count along the chain named. The list shows a part of the results.

B1: UGAAUUG (DNA:RNA)
RNA: GGGAGACCGGAAUUCAGAUUGUCCUGAAUUGUUAAAUCCCGUCGUAGCCACCA
DNA 1: CAATCTGAATTCCGGTCTCCC
DNA 2: TGGTGGCTACGACGGGATT
B2: GACGACC (DNA:RNA)
RNA: GGGAGACCGGAAUUCAGAUUGUCCGACGACCUUAAAUCCCGUCGUAGCCACCA
DNA 1: CAATCTGAATTCCGGTCTCCC
DNA 2: TGGTGGCTACGACGGGATT
B3: GAUUCAC (DNA:RNA)
RNA: B2 RNA with C27U, G28U, A29C, C30A
DNA 1: CAATCTGAATTCCGGTCTCCC
DNA 2: TGGTGGCTACGACGGGATT
B4: UCUUCAU (DNA:RNA)
RNA: B1 RNA with G26C, A27U, A28U, U29C, U30A, G31U
DNA 1: CAATCTGAATTCCGGTCTCCC
DNA 2: TGGTGGCTACGACGGGATT
B5: UGCGAAA (DNA:RNA)
RNA: B2 RNA with G25U, A26G, C30A, C31A
DNA 1: CAATCTGAATTCCGGTCTCCC
DNA 2: TGGTGGCTACGACGGGATT
B6: UUUCUGU (DNA:RNA)
RNA: B1 RNA with G26U, A27U, A28C, U30G, G31U
DNA 1: CAATCTGAATTCCGGTCTCCC
DNA 2: TGGTGGCTACGACGGGATT
B7: CUUAGGG (DNA:RNA)
RNA: B1 RNA with U25C, G26U, A27U, U29G, U30G
DNA 1: CAATCTGAATTCCGGTCTCCC
DNA 2: TGGTGGCTACGACGGGATT
B8: CAGCCUC (DNA:RNA)
RNA: B2 RNA with G25C, C27G, G28C, A29C, C30U
DNA 1: CAATCTGAATTCCGGTCTCCC
DNA 2: TGGTGGCTACGACGGGATT
B9: CACGUCC (DNA:RNA)
RNA: B2 RNA with G25C, A29U
DNA 1: CAATCTGAATTCCGGTCTCCC
DNA 2: TGGTGGCTACGACGGGATT
B10: CCGAGGG (DNA:RNA)
RNA: B1 RNA with U25C, G26C, A27G, U29G, U30G
DNA 1: CAATCTGAATTCCGGTCTCCC
DNA 2: TGGTGGCTACGACGGGATT
B11: UCUAAGG (DNA:RNA)
RNA: B1 RNA with G26C, A27U, U29A, U30G
DNA 1: CAATCTGAATTCCGGTCTCCC
DNA 2: TGGTGGCTACGACGGGATT
B12: AGUCUAU (DNA:RNA)
RNA: B1 RNA with U25A, A27U, A28C, U30A, G31U
DNA 1: CAATCTGAATTCCGGTCTCCC
DNA 2: TGGTGGCTACGACGGGATT
B13: UGCCCGU (DNA:RNA)
RNA: B1 RNA with A27C, A28C, U29C, U30G, G31U
DNA 1: CAATCTGAATTCCGGTCTCCC
DNA 2: TGGTGGCTACGACGGGATT
B14: UUUCAAG (DNA:RNA)
RNA: B1 RNA with G26U, A27U, A28C, U29A, U30A
DNA 1: CAATCTGAATTCCGGTCTCCC
DNA 2: TGGTGGCTACGACGGGATT
B15: UAGGAAG (DNA:RNA)
RNA: B2 RNA with G25U, C27G, C30A, C31G
DNA 1: CAATCTGAATTCCGGTCTCCC
DNA 2: TGGTGGCTACGACGGGATT
B16: CUAUUGG (DNA:RNA)
RNA: B1 RNA with U25C, G26U, A28U, U30G
DNA 1: CAATCTGAATTCCGGTCTCCC
DNA 2: TGGTGGCTACGACGGGATT
B17: CUCCGGC (DNA:RNA)
RNA: B2 RNA with G25C, A26U, G28C, A29G, C30G
DNA 1: CAATCTGAATTCCGGTCTCCC
DNA 2: TGGTGGCTACGACGGGATT
B18: GAUACCA (DNA:RNA)
RNA: B2 RNA with C27U, G28A, A29C, C31A
DNA 1: CAATCTGAATTCCGGTCTCCC
DNA 2: TGGTGGCTACGACGGGATT
B19: GUCCUUC (DNA:RNA)
RNA: B2 RNA with A26U, G28C, A29U, C30U
DNA 1: CAATCTGAATTCCGGTCTCCC
DNA 2: TGGTGGCTACGACGGGATT
B20: CAUUUCA (DNA:RNA)
RNA: B2 RNA with G25C, C27U, G28U, A29U, C31A
DNA 1: CAATCTGAATTCCGGTCTCCC
DNA 2: TGGTGGCTACGACGGGATT
B21: AGACUCU (DNA:RNA)
RNA: B1 RNA with U25A, A28C, U30C, G31U
DNA 1: CAATCTGAATTCCGGTCTCCC
DNA 2: TGGTGGCTACGACGGGATT
B22: UGGGGUA (DNA:RNA)
RNA: B1 RNA with A27G, A28G, U29G, G31A
DNA 1: CAATCTGAATTCCGGTCTCCC
DNA 2: TGGTGGCTACGACGGGATT
B23: AAGAAAG (DNA:RNA)
RNA: B2 RNA with G25A, C27G, G28A, C30A, C31G
DNA 1: CAATCTGAATTCCGGTCTCCC
DNA 2: TGGTGGCTACGACGGGATT
B24: ACCUAGG (DNA:RNA)
RNA: B2 RNA with G25A, A26C, G28U, C30G, C31G
DNA 1: CAATCTGAATTCCGGTCTCCC
DNA 2: TGGTGGCTACGACGGGATT
B25: AAAGGAG (DNA:RNA)
RNA: B2 RNA with G25A, C27A, A29G, C30A, C31G
DNA 1: CAATCTGAATTCCGGTCTCCC
DNA 2: TGGTGGCTACGACGGGATT
B26: ACGGGCA (DNA:RNA)
RNA: B2 RNA with G25A, A26C, C27G, A29G, C31A
DNA 1: CAATCTGAATTCCGGTCTCCC
DNA 2: TGGTGGCTACGACGGGATT
B27: GACCCCC (DNA:RNA)
RNA: B2 RNA with G28C, A29C
DNA 1: CAATCTGAATTCCGGTCTCCC
DNA 2: TGGTGGCTACGACGGGATT
B28: UGGGUAG (DNA:RNA)
RNA: B1 RNA with A27G, A28G, U30A
DNA 1: CAATCTGAATTCCGGTCTCCC
DNA 2: TGGTGGCTACGACGGGATT
B29: AGUCCCA (DNA:RNA)
RNA: B2 RNA with G25A, A26G, C27U, G28C, A29C, C31A
DNA 1: CAATCTGAATTCCGGTCTCCC
DNA 2: TGGTGGCTACGACGGGATT
B30: CCCGGGG (DNA:RNA)
RNA: B2 RNA with G25C, A26C, A29G, C30G, C31G
DNA 1: CAATCTGAATTCCGGTCTCCC
DNA 2: TGGTGGCTACGACGGGATT
B31: UUAUGGA (DNA:RNA)
RNA: B1 RNA with G26U, A28U, U29G, U30G, G31A
DNA 1: CAATCTGAATTCCGGTCTCCC
DNA 2: TGGTGGCTACGACGGGATT

In the assay the target is T1, RBFOX1 RRM RbFoxmut (Fox-RRM*) (Homo sapiens, UniProt Q9NWB1 109-208, R118D;E147R;N151S;E152T).
T1 sequence: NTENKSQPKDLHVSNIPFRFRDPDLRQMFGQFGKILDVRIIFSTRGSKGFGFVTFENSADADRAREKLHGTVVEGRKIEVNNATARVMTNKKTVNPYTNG
In words: EMSA; HiTS-Eq, 1 nM pool, 10 min; buffer printed only for the single-RNA assays: 10 mM Tris pH 7.5, 150 mM NaCl, 3.4 mM EDTA, 0.001% NP-40, 30 C. To be noted: tags: His6 N-terminal (pET28a); label: 5' 32P. Summed up: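 Purified RbFox RRM (wild type or mutant) was equilibrated for 10 min in 50 µL with 1 nM of a 5′-radiolabelled pool of RNA with 7 randomized nucleotides, its flanks annealed to DNA oligonucleotides, across increasing protein concentrations. Free RNA was separated by 8% native PAGE, excised, reverse-transcribed, PCR-barcoded and sequenced on an Illumina HiSeq 2500. Relative association constants came from read-count changes of each variant against the control reaction, normalised to the cognate motif.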
As for B1, the binding signal was 0.174 KA relative to UGCAUGU.
Consider B2, for which the binding signal is 0.052 KA relative to UGCAUGU.
To B3 belongs 0.0862 KA relative to UGCAUGU.
The figure for B4 is 0.0793 KA relative to UGCAUGU; for B5 it is 0.105 KA relative to UGCAUGU.
The figure for B6 is 0.111 KA relative to UGCAUGU; for B7 it is 0.0704 KA relative to UGCAUGU.
Take B8: the binding signal is 0.0602 KA relative to UGCAUGU.
As for B9, the binding signal is 0.097 KA relative to UGCAUGU.
The figure for B10 is 0.083 KA relative to UGCAUGU.
As for B11, the binding signal is 0.0828 KA relative to UGCAUGU.
To B12 belongs 0.0968 KA relative to UGCAUGU; to B13, 0.13 KA relative to UGCAUGU.
The figure for B14 is 0.124 KA relative to UGCAUGU; for B15 it is 0.076 KA relative to UGCAUGU; for B16 it is 0.108 KA relative to UGCAUGU.
To B17 belongs 0.0953 KA relative to UGCAUGU.
As to B18, the binding signal is 0.0754 KA relative to UGCAUGU.
Take B19: the binding signal is 0.0592 KA relative to UGCAUGU.
B20: the binding signal was 0.169 KA relative to UGCAUGU.
Take B21: the binding signal is 0.0373 KA relative to UGCAUGU.
The figure for B22 is 0.214 KA relative to UGCAUGU.
Take B23: the binding signal is 0.106 KA relative to UGCAUGU.
The figure for B24 is 0.108 KA relative to UGCAUGU.
The figure for B25 is 0.0985 KA relative to UGCAUGU; for B26 it is 0.0886 KA relative to UGCAUGU; for B27 it is 0.0875 KA relative to UGCAUGU.
The figure for B28 is 0.197 KA relative to UGCAUGU; for B29 it is 0.0636 KA relative to UGCAUGU; for B30 it is 0.0532 KA relative to UGCAUGU.
On to B31, for which the binding signal was 0.0526 KA relative to UGCAUGU.

Values taken from article PMC9911399, “Two distinct binding modes provide the RNA-binding protein RbFox with extraordinary sequence specificity”.
